This note sets out measurements from PMC9381540, “USP21 promotes self-renewal and tumorigenicity of mesenchymal glioblastoma stem cells by deubiquitinating and stabilizing FOXD1” (Cell Death & Disease, 2022).

By UniProt entry, the sequences of proteins in these tests, tags left out.
UniProt Q92905: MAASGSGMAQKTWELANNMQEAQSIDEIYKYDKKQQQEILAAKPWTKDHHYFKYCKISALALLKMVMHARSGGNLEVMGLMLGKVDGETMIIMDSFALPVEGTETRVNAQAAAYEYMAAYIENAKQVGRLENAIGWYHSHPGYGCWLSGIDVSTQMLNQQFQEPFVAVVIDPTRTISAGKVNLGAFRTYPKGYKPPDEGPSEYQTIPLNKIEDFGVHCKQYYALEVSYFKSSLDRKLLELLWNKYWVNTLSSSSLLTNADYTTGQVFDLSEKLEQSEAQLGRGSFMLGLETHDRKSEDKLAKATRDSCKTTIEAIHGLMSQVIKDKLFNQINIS

These are yes or no findings as the source states them, for the method shown. In cells and extracts the contact can be indirect. Some binding calls cover weakened binding; strength is not graded here. For part of these data: Where a sequence is shown, tags or fusion partners need not be part of it.

One experiment concerns the target T1, USP22 (human) (UniProt Q9UPT9).
T1 sequence: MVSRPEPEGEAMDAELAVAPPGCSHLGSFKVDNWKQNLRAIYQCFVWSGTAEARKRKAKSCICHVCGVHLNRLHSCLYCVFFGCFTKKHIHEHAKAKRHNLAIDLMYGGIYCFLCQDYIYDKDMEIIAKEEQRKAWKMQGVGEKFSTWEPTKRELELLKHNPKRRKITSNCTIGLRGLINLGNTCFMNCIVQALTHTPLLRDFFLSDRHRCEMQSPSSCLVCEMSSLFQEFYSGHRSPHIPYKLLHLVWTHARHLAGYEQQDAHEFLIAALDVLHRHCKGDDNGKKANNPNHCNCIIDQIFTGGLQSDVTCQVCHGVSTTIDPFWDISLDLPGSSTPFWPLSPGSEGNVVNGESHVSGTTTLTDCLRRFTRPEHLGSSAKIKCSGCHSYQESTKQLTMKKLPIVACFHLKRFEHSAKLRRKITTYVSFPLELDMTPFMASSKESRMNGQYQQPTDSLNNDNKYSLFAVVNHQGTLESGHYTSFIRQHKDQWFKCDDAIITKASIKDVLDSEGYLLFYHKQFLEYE
As to the kind of experiment: co-IP; HEK293T cells expressing each of four DUBs (COPS5, SENP6, USP22, USP21); endogenous FOXD1; lysates immunoprecipitated overnight at 4 °C, protein A/G, immunoblot. On the technique in general: Immunoblotting shows a protein as a band on a membrane.

Experiment [1] has as its target T2, Flag-USP21 WT (ubiquitin-specific peptidase 21) (human) (UniProt Q9UK80).
T2 sequence: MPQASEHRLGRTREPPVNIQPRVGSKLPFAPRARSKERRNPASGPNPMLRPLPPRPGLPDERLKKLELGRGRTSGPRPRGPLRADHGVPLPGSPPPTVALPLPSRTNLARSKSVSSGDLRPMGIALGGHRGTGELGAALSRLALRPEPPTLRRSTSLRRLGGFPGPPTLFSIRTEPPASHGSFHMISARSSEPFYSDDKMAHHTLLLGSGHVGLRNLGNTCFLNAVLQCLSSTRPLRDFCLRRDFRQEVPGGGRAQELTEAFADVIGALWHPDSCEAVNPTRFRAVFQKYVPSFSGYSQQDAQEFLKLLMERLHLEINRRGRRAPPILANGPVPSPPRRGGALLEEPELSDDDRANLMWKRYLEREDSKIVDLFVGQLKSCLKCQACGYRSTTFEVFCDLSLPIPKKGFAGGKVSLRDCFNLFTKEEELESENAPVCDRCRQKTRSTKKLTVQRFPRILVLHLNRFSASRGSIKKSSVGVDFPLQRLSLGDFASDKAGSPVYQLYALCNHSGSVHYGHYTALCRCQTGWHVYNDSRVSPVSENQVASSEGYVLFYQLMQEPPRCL
Described as above.

The next experiment deals with COPS5 (human) (UniProt Q92905). The experiment is described as above.
Experiment [2] has as its target T3, Flag-USP21 C221A (catalytically inactive mutant) (human) (UniProt Q9UK80).
T3 sequence: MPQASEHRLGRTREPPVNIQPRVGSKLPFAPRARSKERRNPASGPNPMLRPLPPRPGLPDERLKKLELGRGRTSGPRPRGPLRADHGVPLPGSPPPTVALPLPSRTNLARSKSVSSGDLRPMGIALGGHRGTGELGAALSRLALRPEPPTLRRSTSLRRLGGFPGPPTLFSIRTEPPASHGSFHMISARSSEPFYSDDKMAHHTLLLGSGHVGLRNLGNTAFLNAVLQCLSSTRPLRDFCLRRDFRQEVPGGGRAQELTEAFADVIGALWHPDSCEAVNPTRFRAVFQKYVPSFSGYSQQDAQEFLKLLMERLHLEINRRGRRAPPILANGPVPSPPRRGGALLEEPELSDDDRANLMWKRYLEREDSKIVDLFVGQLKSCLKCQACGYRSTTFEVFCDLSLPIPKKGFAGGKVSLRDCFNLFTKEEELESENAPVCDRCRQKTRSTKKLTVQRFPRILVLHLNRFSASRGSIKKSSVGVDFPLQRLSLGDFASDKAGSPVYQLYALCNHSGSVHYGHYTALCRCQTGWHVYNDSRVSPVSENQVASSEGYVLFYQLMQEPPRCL
As to the kind of experiment: co-IP; HEK293T cells with Flag-USP21 WT or C221A and Myc-FOXD1; Flag immunoprecipitates blotted for Myc-FOXD1.

Experiment [3] concerns the target T2, Flag-USP21 WT (ubiquitin-specific peptidase 21) (human). Described as above.
Experiment [4] addresses T4, endogenous USP21 (MES 21 and 505 GSCs) (human (endogenous in MES 21 and 505 GSCs)) (UniProt Q9UK80).
T4 sequence: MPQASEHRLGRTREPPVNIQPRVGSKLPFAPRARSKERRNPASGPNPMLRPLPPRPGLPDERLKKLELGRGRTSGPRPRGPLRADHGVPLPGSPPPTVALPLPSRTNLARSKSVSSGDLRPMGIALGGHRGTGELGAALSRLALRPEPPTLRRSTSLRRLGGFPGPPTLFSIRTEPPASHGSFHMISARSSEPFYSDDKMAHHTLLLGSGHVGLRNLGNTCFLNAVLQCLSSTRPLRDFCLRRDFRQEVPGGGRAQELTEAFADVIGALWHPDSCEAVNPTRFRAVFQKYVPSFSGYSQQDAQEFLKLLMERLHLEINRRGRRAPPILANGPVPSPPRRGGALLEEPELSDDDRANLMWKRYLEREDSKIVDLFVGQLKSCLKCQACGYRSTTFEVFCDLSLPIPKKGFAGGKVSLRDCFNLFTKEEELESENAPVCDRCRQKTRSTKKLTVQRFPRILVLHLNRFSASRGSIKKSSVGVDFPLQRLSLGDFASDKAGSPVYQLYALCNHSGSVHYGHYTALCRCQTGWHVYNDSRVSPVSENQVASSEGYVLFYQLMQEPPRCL
The experiment in a line: co-IP; reciprocal co-IP of endogenous USP21 and FOXD1 in MES 21 and 505 GSCs.

B1: endogenous FOXD1 (HEK293T) (protein, UniProt Q16676 1-465)
chain: MTLSTEMSDASGLAEETDIDVVGEGEDEEDEEEEDDDEGGGGGPRLAVPAQRRRRRRSYAGEDELEDLEEEEDDDDILLAPPAGGSPAPPGPAPAAGAGAGGGGGGGGAGGGGSAGSGAKNPLVKPPYSYIALITMAILQSPKKRLTLSEICEFISGRFPYYREKFPAWQNSIRHNLSLNDCFVKIPREPGNPGKGNYWTLDPESADMFDNGSFLRRRKRFKRQPLLPPNAAAAESLLLRGAGAAGGAGDPAAAAALFPPAPPPPPHAYGYGPYGCGYGLQLPPYAPPSALFAAAAAAAAAAAFHPHSPPPPPPPHGAAAELARTAFGYRPHPLGAALPGPLPASAAKAGGPGASALARSPFSIESIIGGSLGPAAAAAAAAQAAAAAQASPSPSPVAAPPAPGSSGGGCAAQAAVGPAAALTRSLVAAAAAAASSVSSSAALGTLHQGTALSSVENFTARISNC
Regarding B1, the binding entry was “no binding” with USP22 (human), “binds” in experiment [1] and “no binding” with COPS5 (human).

B2: Myc-FOXD1 (Forkhead box D1) (protein, UniProt Q16676 1-465)
chain: MTLSTEMSDASGLAEETDIDVVGEGEDEEDEEEEDDDEGGGGGPRLAVPAQRRRRRRSYAGEDELEDLEEEEDDDDILLAPPAGGSPAPPGPAPAAGAGAGGGGGGGGAGGGGSAGSGAKNPLVKPPYSYIALITMAILQSPKKRLTLSEICEFISGRFPYYREKFPAWQNSIRHNLSLNDCFVKIPREPGNPGKGNYWTLDPESADMFDNGSFLRRRKRFKRQPLLPPNAAAAESLLLRGAGAAGGAGDPAAAAALFPPAPPPPPHAYGYGPYGCGYGLQLPPYAPPSALFAAAAAAAAAAAFHPHSPPPPPPPHGAAAELARTAFGYRPHPLGAALPGPLPASAAKAGGPGASALARSPFSIESIIGGSLGPAAAAAAAAQAAAAAQASPSPSPVAAPPAPGSSGGGCAAQAAVGPAAALTRSLVAAAAAAASSVSSSAALGTLHQGTALSSVENFTARISNC
For the molecule B2, the binding entry in experiment [2] and in experiment [3] was “binds” in each case.

B3: endogenous FOXD1 (MES 21 and 505 GSCs) (protein, UniProt Q16676 1-465)
chain: MTLSTEMSDASGLAEETDIDVVGEGEDEEDEEEEDDDEGGGGGPRLAVPAQRRRRRRSYAGEDELEDLEEEEDDDDILLAPPAGGSPAPPGPAPAAGAGAGGGGGGGGAGGGGSAGSGAKNPLVKPPYSYIALITMAILQSPKKRLTLSEICEFISGRFPYYREKFPAWQNSIRHNLSLNDCFVKIPREPGNPGKGNYWTLDPESADMFDNGSFLRRRKRFKRQPLLPPNAAAAESLLLRGAGAAGGAGDPAAAAALFPPAPPPPPHAYGYGPYGCGYGLQLPPYAPPSALFAAAAAAAAAAAFHPHSPPPPPPPHGAAAELARTAFGYRPHPLGAALPGPLPASAAKAGGPGASALARSPFSIESIIGGSLGPAAAAAAAAQAAAAAQASPSPSPVAAPPAPGSSGGGCAAQAAVGPAAALTRSLVAAAAAAASSVSSSAALGTLHQGTALSSVENFTARISNC
As to B3, the binding result in experiment [4] is “binds”.
